Laboratory results: PubChem BioAssay AID493208 (National Center for Advancing Translational Sciences (NCATS), 2011)
The campaign covered roughly 44,000 compounds. About 340 (0.77%) were called active. Inconclusive results (about 5%) are left out. The call rests on the fitted dose curve; in most records, active means well fitted inhibition curve with a large enough effect; inconclusive means small, poorly fitted or top-dose-only effect; inactive means flat fitted curve, though single readings scatter. The list shows a part of the results.

Assay: Acumen qHTS Assay for Inhibitors of the mTORC1 Signaling Pathway in MEF (Tsc2-/-, p53-/-) Cells: Sytravon;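 further: plate controls were DMSO for no effect and rapamycin for full effect; nearly all actives have a fitted effect of over 50% in size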
Settings: phospho-rpS6 immunofluorescence/PI, 24 h; series mostly up to 38.3 µM; activity change, negative = inhibition: at the top concentration
In short: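 Tsc2-/-, p53-/- MEFs (empty-vector stable line) in DMEM + 10% FBS were treated with compounds 24 h at 37 degree Celsius, fixed, and immunostained for phospho-rpS6 (Alexa-488) with propidium iodide counterstain. Laser-scanning cytometry gave % positive cells, normalized against 7.5 nM rapamycin and DMSO.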

Activity change, negative = inhibition, inactive:
COc1ccc(C(=O)Nc2ccc3oc(-c4ccc(OC)cc4)nc3c2)cc1 -9.43%
Cc1cccc(NC(=O)CCNS(=O)(=O)c2cccc3nonc23)c1 -19.3%
CC(=O)Nc1ccc(S(=O)(=O)NC2(C(F)(F)F)C(=O)Nc3c2c(=O)[nH]c(=O)n3-c2ccc(C)c(C)c2)cc1 (stereo unspecified) -1.53%
CCOc1ccc(C(=O)c2cn(Cc3ccc(OC)cc3)c3cc(OC)c(OC)cc3c2=O)cc1 -8.59%
CCOc1ccc(NS(=O)(=O)c2ccc3[nH]cc(C(=O)NC4CCCC4)c(=O)c3c2)cc1 0.712%
Cc1ccc(C(=O)CSc2nnc(-c3ccccc3)n2-c2ccccc2)cc1 9.09%
COc1cccc(-n2c(-c3ccco3)nc3c(cnn3-c3ccc(C)cc3)c2=O)c1 -7.67%
CCN1c2ccccc2-c2nc(SCC(=O)Nc3c(C)cc(C)cc3C)ncc2S1(=O)=O 3.44%
CCOc1ccc(NC(=O)CSc2ncc3c(n2)-c2cc(Cl)ccc2N(C)S3(=O)=O)cc1 3.24%
Cc1ccc2cccc(NC(=O)C(C)Oc3ccc(C)c(C)c3)c2n1 (stereo unspecified) -10.5%
CC1=C(C(=O)NCc2ccc(C)cc2)C2(CCCCC2)OC1=O 15.4%
O=C(Nc1cc(Cl)ccc1Cl)C1(c2cccs2)CCOCC1 -0.626%
Cc1noc(Cn2c(=O)c3ccccc3n(CC(=O)Nc3ccc(Cl)cc3)c2=O)n1 -0.0429%
COc1ccc(Nc2ncc(C(=O)Nc3cc(Cl)c(OC)cc3OC)c3ccccc23)cc1 -4.21%
CN(C)c1ccc(C(CNS(=O)(=O)c2ccc(F)cc2)N2CCCC2)cc1 (stereo unspecified) 0.528%
O=C(CCS(=O)(=O)c1nc(-c2ccc3c(c2)OCO3)cc(C(F)(F)F)n1)Nc1ccc(F)c(Cl)c1 -3.9%
COc1ccc(NC(=O)CCNS(=O)(=O)c2cccc3nonc23)c(OC)c1 8.04%
CC(=O)N1CCCc2cc(S(=O)(=O)N3CCCC(C(=O)Nc4cccc(F)c4)C3)ccc21 (stereo unspecified) -13.4%
O=C(Nc1ncc(Cc2ccc(Cl)cc2)s1)c1ccc2c(c1)CC(c1ccccc1)OC2=O (stereo unspecified) -1.01%
COc1cccc(CNC(=O)CSc2nc3ccccc3nc2Cc2ccc(C)cc2)c1OC -4.55%
CCCn1c2ccccc2c2cnn(CC(=O)NCCc3ccc(OCC)c(OCC)c3)c(=O)c21 -1.54%
Cc1ccc(NC(=O)CCNS(=O)(=O)c2ccc3c(c2)CCN3C(=O)C2CC2)c(Cl)c1 -11.2%
CCOC(=O)CNC(=O)c1cc2c(=O)n3cccc(C)c3nc2s1 8.4%
COc1cccc(C2CC(=O)Nc3c2c(=O)nc2c(C)cccn32)c1 (stereo unspecified) -0.892%
CCCCNC(=O)CCn1c(=O)c2cccn2c2ccc(F)cc21 2.66%
Cc1noc(Cn2c(=O)c3ccccc3n(CC(=O)Nc3cccc(Cl)c3C)c2=O)n1 -5.07%
CC1CCN(c2nn3c(=O)c(C(=O)NCc4ccc(Cl)cc4)cnc3s2)CC1 1.77%
CC(=O)N1CCCc2cc(S(=O)(=O)N(C)CC(=O)Nc3ccc(C)cc3C)ccc21 -2.22%
N#Cc1nc(/C=C/c2ccc(F)cc2)oc1N1CCN(c2ccccc2)CC1 2.36%
CC(C)c1ccc(OCC(=O)Nc2c(Cl)ccc3nsnc23)cc1 -10%
Cc1cccc(-c2noc(-c3cccnc3NCc3ccco3)n2)c1 0.403%
COc1cccc(C2c3c(oc4ccc(C)cc4c3=O)C(=O)N2CCCN2CCOCC2)c1OC (stereo unspecified) -5.85%
O=C(Nc1cccc(NC(=O)c2ccc(Br)o2)c1)c1ccccc1 2.08%
COc1ccc(-n2c(=O)c3c4c(sc3n(Cc3cc(C)ccc3C)c2=O)CN(C(C)=O)CC4)c(OC)c1 -4.59%
Cc1ccccc1-n1cc(-c2ccccc2)nc1SCC(=O)Nc1ccc(F)cc1 -4.68%
CCCn1c2ccccc2c2cnn(CC(=O)N3CCC(C(=O)OCC)CC3)c(=O)c21 4.05%
Cc1ccc(CNc2nc3ccccc3n3c(C)nnc23)cc1 -3.88%
COc1ccc(C2C(=O)N(C3CCC(C)CC3)CC(=O)N2Cc2ccccc2Cl)cc1OC (stereo unspecified) -0.492%
Cc1ccc(Sc2c(C)nn(C(=O)COc3ccc(F)cc3)c2C)cc1 -0.0648%
O=C(NCCN1CCN(c2ccccc2)CC1)Nc1ccccc1Br -4.65%
Cc1ccc(N2CC(NC(=O)c3ccc(S(=O)(=O)N4CCOCC4)cc3)CC2=O)cc1C (stereo unspecified) -0.161%
Cc1cccc(CNC(=O)C2CCN(c3nnc(-n4c(C)ccc4C)s3)CC2)c1 0.183%
Cc1cc2oc(=O)c(CC(=O)O)c(C)c2c2occ(-c3ccc(F)cc3)c12 -2.7%
O=C(c1ccc2c(c1)OCCO2)N(Cc1cccnc1)c1nc2c(F)cccc2s1 0%
Cc1cccc(-c2noc(CN(C(=O)c3ccccc3Cl)C(C)C)n2)c1 -18.5%
Cn1c(C(=O)NCCc2ccccc2)cc2c(=O)n3ccccc3nc21 4.14%
COc1ccc(CCNC(=O)CCCn2c(=O)c3ccccc3n(Cc3ccc(F)cc3Cl)c2=O)cc1OC -3.75%
COc1ccc(Cn2c(CNS(=O)(=O)c3ccc4c(c3)CCCC4)nc3cccnc32)cc1 -1.01%
Cc1ccc(CNc2nc3ccccc3c3nc(-c4cccc(C)c4)nn23)cc1 1.47%
CCCSc1oc(-c2cccs2)nc1S(=O)(=O)c1ccc(Cl)cc1 -5.54%
O=C(c1cnc(N2CCCCC2)c2ccccc12)N1CCN(c2ccccc2F)CC1 -6.22%
Cc1ccc2c(c1)c1c(c(=O)n(Cc3ccccc3)c(=O)n1Cc1cccc(C(F)(F)F)c1)n2C -0.0152%
COc1ccc(CNC(=O)CCc2c(C)nn(-c3ccc(N4CCCCC4)nn3)c2C)c(OC)c1 -12.6%
c1csc(C2=NC(c3ccncc3)=Nc3ccccc3N2)c1 1.22%
Cc1ccc(-n2ncc(C(=O)NCCCN3CCN(c4cccc(Cl)c4)CC3)c2-n2cccc2)cc1 -12.9%
CC(=O)N1CCc2cc(CNS(=O)(=O)c3ccc(Br)s3)ccc21 -1.75%
CCOc1ccc(C(=O)NCCc2sc3nc(-c4ccc(Cl)cc4)nn3c2C)cc1OCC 4.93%
CC1CCCN(Cc2cn3c(-c4cccc(Br)c4)nnc3s2)C1 (stereo unspecified) -0.758%
CC(C(=O)Nc1cc(C(F)(F)F)ccc1Cl)n1nnc2sc3c(c2c1=O)CCCC3 (stereo unspecified) -3%
Cc1ccccc1C(=O)NCc1nc2cccnc2n1Cc1ccccc1 1.73%
COc1cccc(CNC(=O)c2nn(-c3ccccc3Cl)nc2CO)c1 0.258%
